Measured values published in the supplement of paper PMC10338343.
± gives the standard deviation. The full ranking holds about 6,600 sequences; the median of “pre-steady-state target cleavage rate” is about 0.07, and the highest 2% start at about 0.72. The entries are a selection whose mix differs from that of the whole data set.

Each sequence was assayed on MIWI (PIWIL1) piRISC loaded with Kctd7 piRNA (30 nt) (assay: pre-steady-state target cleavage rate (min^-1); MIWI and MILI are mouse PIWI proteins and EfPiwi is from a freshwater sponge; tags in brackets are library labels; higher = faster piRNA-guided slicing of the target). Settings: guide: Kctd7 piRNA 5'p-UGUUAAUCUCUCAGAGAAGGUGACAGUGAU; auxiliary factor: 500 nM mouse GTSF1.
Method in brief: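 In HEPES–potassium acetate buffer at 33 °C, […] transcribed, DNA-blocked target RNA library was mixed with 1 nM active affinity-purified piRISC carrying one synthetic guide, with or without 500 nM GTSF1 partner protein, for 0–8 or 0–960 min. Uncleaved targets were sequenced and normalised to depth and to weakly complementary targets; three trials were pooled and k3 was capped at 0.0001 min^-1. The pre-steady-state cleavage rate followed from a burst-and-steady-state fit.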
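Further: 1 nM active piRISC with 0.1 nM target library at 33 °C single turnover.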

Row | Sequence | pre-steady-state target cleavage rate
1 | UAGUGUGUCACCUUCUCUGACAGAUUAAGA | 0.00756 ± 0.0046
2 | UUCACUGUCUCCUUCUGUGAGAGAUUAACA | 0.589 ± 0.037
3 | UAGUGACAGUCCUUCUGUGAGUGAUUAACA | 0.00421 ± 0.0028
4 | UUCACAGUCACCUACUCUGAGAGAUUAACA | 0.611 ± 0.034
5 | AUCACUGUCACCUUCUCAGUGAGAUUAACA | 0.0218 ± 0.0055
6 | UUCACUGUCACCUUCUCUGAGAGAAUUAACA | 0.641 ± 0.098
7 | UACACUGUCACCUUCUCUGUGAGAUUAUCA | 0.115 ± 0.036
8 | UACACUGUGACCUUCUCUGAGUGAUUAACA | 0.0211 ± 0.0063
9 | UUCACUGUGACCUUCUCUGAGUGAUUAACA | 0.0243 ± 0.003
10 | UAGUGUGUCACCAUCUCUGAGAGAUUUUGA | 0.0159 ± 0.0065
11 | UACAGACUCACCUUCUCUGAGAGAUUUUGA | 0.0319 ± 0.0062
12 | AUCACUGUCACCUUCUCUGAAGAGAUUAACA | 0.0111 ± 0.0049
13 | UAGUGACACACCUUCUGUGUGAGAUUAACA | 0.0354 ± 0.0074
14 | UAGUGACACACCUUCUCUGAGAGAUUAAA | 0.23 ± 0.052
15 | UUCACUGUCACCUUCUCUGAGACAUAUUGA | 0.00421 ± 0.0037
16 | AUCACAGUCACCUUCUCUGAGAGAUUAUGA | 0.0483 ± 0.014
17 | UACACAGUCACCUUCUCUGAGAGAUAAACA | 0.38 ± 0.046
18 | UACACUGUCACCUUCUCUGAGUGAUAAACA | 0.0211 ± 0.0066
19 | UACUGAGUCACCUUCUCUGAGAGAUUUUGA | 0.0745 ± 0.015
20 | UAGUGAGUCACCUUCUCUGCGAGAUUAACA | 0.319 ± 0.028
21 | AUCACUCACACCUUCUCUGAGAGAUUUUGA | 0.113 ± 0.032
22 | UAGAGUGUCACCUUCUCUGUGAGAUUAACA | 0.299 ± 0.013
23 | UACACUGUCUGGUUCUCUGAGAGAUUAAGA | 0.0195 ± 0.0043
24 | UAGUGACAGUCCUUCUCUAAGAGAUUAACA | 0.0145 ± 0.0044

Row | Sequence | pre-steady-state target cleavage rate
25 | UACACUGUGACCUUCUCUGAGAGUUUAACA | 0.298 ± 0.054
26 | UUCACUGUCACCUUCUCUGUGAGAUUUUGA | 0.044 ± 0.013
27 | UAGACUGUCAGCUUCUGUGAGAGAUUAACA | 0.415 ± 0.023
28 | UACACAGUCACCUUCUCUGUGAGAUUAACA | 0.175 ± 0.021
29 | AUCACUGACAGCUUCUCUGAGAGAUUAACA | 0.619 ± 0.035
30 | UAGUGACUCACCAUCUCUGAGAGAUUAUGA | 0.00377 ± 0.0024
31 | UAGUGUGUCACCCUUCUCUGAGAGAUUAACA | 0.304 ± 0.03
32 | AUCACUGUCAGCUUCUCUGAGAGAUUUUGA | 0.0122 ± 0.005
33 | AUCACUGUCACCUUCUCUGUCUGAUUAAGA | 0.0198 ± 0.0086
34 | UAGUCUGUCACCUUCUCAGAGAGAUUUACA | 0.22 ± 0.026
35 | UAGUGAGUCACCUUCUGUGAGAGAUAAACA | 0.141 ± 0.019
36 | UUCACUGUCACCUUCUCUGGAGAUUAACA | 0.176 ± 0.016
37 | UAGACUGUCACCUUCUCUGAGAGAUUAUGA | 0.106 ± 0.018
38 | AUCACUGUCACGUUCUCUGACAGAUUAACA | 0.0497 ± 0.0083
39 | UUCACUCUCACCUUCACUGAGAGAUUAACA | 0.341 ± 0.019
40 | AUCACUGUCACCUUCUCUGAGACAUUAUGA | 0.00926 ± 0.0033
41 | UAGACUGUCACGUUCUCAGAGAGAUUAACA | 0.135 ± 0.0098
42 | UAGUGAGUCACCUUCUCUCAGAGAAUAACA | 0.0248 ± 0.0065
43 | UAGUGACACACCUUCUCUGAGAGAUCUAACA | 0.162 ± 0.038
44 | UUCACUGUUACCUUCUCUGAGAGAUUAACA | 0.342 ± 0.032
45 | UAGUGAGUCACCUUCUCUGAGAGAAAAACA | 0.151 ± 0.026
46 | UAGUGUCUCACCAUCUCUGAGAGAUUAACA | 0.553 ± 0.035
47 | UACACUGUCACCUUGUCUGAGAGAUAUUGA | 0.118 ± 0.031
48 | UAGUGAGUCACCUACUCUGAGAGAUAUUGA | 0.00386 ± 0.0037

Row | Sequence | pre-steady-state target cleavage rate
49 | AUCACUGUCAGCUUCUCUGAGAGAUAAACA | 0.28 ± 0.03
50 | UUCUCUGUCACCUUCUCUGAGAGAUUAAGA | 0.107 ± 0.021
51 | AUCACUGUCACCUUCAGUGAGAGAUUAACA | 0.0907 ± 0.016
52 | AUCACUCUCACCUUCUCUGAGAGUUUAACA | 0.156 ± 0.022
53 | UACACUGUCACCUUCUCUGAGAGAAAAACA | 0.262 ± 0.052
54 | UUCACUGUCACGUUCUCUGAGAGAUUAACA | 0.681 ± 0.035
55 | UAGACUGACACCAUCUCUGAGAGAUUAACA | 0.511 ± 0.043
56 | UAGACUGAGUCCUUCUCUGAGAGAUUAAGA | 0.0188 ± 0.0034
57 | UAGUGACAGACCAACUCUGAGAGAUUAAGA | < 0.0001
58 | UUCAGUGUCACCUUCUCUGAGAGAUUAUCA | 0.189 ± 0.034
59 | UACACUGUCACCUUCUCUGACAGAUUAAGA | 0.00873 ± 0.005
60 | UAGUGAGUCACGUUCUCUGAGAGAAUAACA | 0.183 ± 0.029
61 | UAGUGACAGAGGAUCUCUGAGAGAUUAUGA | < 0.0001
62 | UACACUGUCACCUUCUCUGAGAGAUAAUGA | 0.107 ± 0.032
63 | UACACUGUCACCUUCUCUGAGAGAUUUUCA | 0.206 ± 0.044
64 | UUCACUGACACCUUCUGUGAGAGAUUAACA | 0.34 ± 0.022
65 | UAGUGUGUCACCUUCUCUGAGAGAAAUACA | 0.0539 ± 0.019
66 | UAGUGACAGUGGAAGUCUGAGAGCAUUAACA | < 0.0001
67 | UAGUGACUCACCGUCUCUGAGAGAUUAACA | 0.431 ± 0.05
68 | UAGUGAGUCACGUUCUCUGAGAGAUUAAGA | 0.115 ± 0.018
69 | UAGUGUGUCACCUUCUCUGAGAGAUAAUGA | 0.0337 ± 0.01
70 | UAGUGACAGUGCUUCUCUGAGAGAUUAUACA | 0.0041 ± 0.0037
71 | UAGUGAGUCACCUUCUCUGAGAGUUUUACA | 0.265 ± 0.055
72 | UAGUGAGUCACCUUCACUGUGAGAUUAACA | 0.171 ± 0.012
